± gives the standard deviation of the averaged measurements. The list shows a part of the results.
Each sequence was assayed on PfAP2-EXP AP2 domain (GST-tagged) (assay: gcPBM binding intensity (ln(normalized median fluorescence intensity)); higher = stronger DNA binding).
Summary of the method: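 GST-fused DNA-binding domains of P. falciparum, expressed in E. coli, were applied at about 25 μg on average for 1 h to an Agilent 4 × 180k array of primer-extended double-stranded 36-bp intergenic genomic probes and negative controls. Binding intensity is the highest Masliner-normalised natural-log median intensity across replicate spots of either probe orientation, measured with Alexa488 anti-GST antibody and a 488 nm scan.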

| Sequence | gcPBM binding intensity (ln) |
| --- | --- |
| TCTGAGAATGATAAAAAAAAAAAAAATGAAAAATTA [CACACA_negctrl_site1478] | 8.15 ± 0.54 |
| ACGATATTTTTGGTGACACACATATATATATATATA [CACACA_site126] | 10.1 ± 0.46 |
| TTTTTTTTTTTATCTGCACACCCTTTTGTGAATATT [CACACA_site789] | 8.65 ± 0.42 |
| TATTTATTTATATTTACACACATTCATATAAATTCA [CACACA_site7628] | 8.53 ± 0.38 |
| AAAACTTTTAGTTATACACACAACATAGAAAATATT [CACACA_site6287] | 8.65 ± 0.38 |
| AATGAGCGTTAAAAATGTACAGAAAATTGGAATTAT [XGTACX_site5743] | 8.87 ± 0.37 |
| CTCCTACAAATATGTAGTACATTCAAAATAAATACC [XGTACX_site8207] | 8.56 ± 0.28 |
| AACAATCAAATAGACACACACACACCCAAACATAAA [CACACA_site2757] | 8.63 ± 0.57 |
| ATGCAATAAATATACACACACAAATCTATATTTATA [CACACA_site7179] | 8.48 ± 0.43 |
| AAAAAATGGATGATCACACACTTCATAAAAGTTGCA [CACACA_site7109] | 8.41 ± 0.44 |
| TTTTTTTTGTAGAATTGTACTTATAAAATATATATA [XGTACX_site2116] | 8.19 ± 0.34 |
| AAATAAAATAATTATAATACTAAAAATAATACATAA [GTGCAC_negctrl_site106] | 8.46 ± 0.36 |
| AATTATTATATATATATATATATATATTTATATATT [GTGCAC_negctrl_site387] | 8.37 ± 0.17 |
| AGTTCAAGGATTAAGACACACATATAAATAAATAAA [CACACA_site3662] | 8.64 ± 0.43 |
| ATATATAAAAAAGCTAGTACACAAAAATATATAATG [XGTACX_site3001] | 8.97 ± 0.51 |
| TTCTTTTCTCTTTTAATCATATTATATAAATGAATA [CACACA_negctrl_site820] | 8.58 ± 0.49 |
| AAAAAAATTTATTAAAGTACTAGATAATCATATAAA [XGTACX_site1455] | 8.43 ± 0.37 |
| CCTTTCACATATAATACATGCATTATTATATATGAA [TGCATGCA_site287] | 8.9 ± 0.47 |
| ATTATAAATAAATATTGTACTTATATGATCTATTTG [XGTACX_site3820] | 8.18 ± 0.35 |
| AGAATAATATAATAAAGTACAAACCTATCTAACTAC [XGTACX_site5477] | 8.81 ± 0.3 |
| ATTGCATTTGTAGATAATACAATATGGATTGTTATA [CACACA_negctrl_site1749] | 8.1 ± 0.43 |
| GGATATATTATATGTACACACACATATAAGGGATTA [CACACA_site7884] | 8.53 ± 0.33 |

| Sequence | gcPBM binding intensity (ln) |
| --- | --- |
| AAAAATTTTATATTCACACACATATTTATATTTATA [CACACA_site6439] | 8.25 ± 0.27 |
| GAGTAAAAATTAAAATGTACATATTATATATATTTA [XGTACX_site1319] | 8.15 ± 0.28 |
| AAATCCTTATTTTTTTGTACGTAATATTTTATATGG [XGTACX_site1530] | 8.74 ± 0.45 |
| ATGAATGTCCCAAGATGTACAATTATATATAACACA [XGTACX_site4702] | 8.54 ± 0.41 |
| TTTTAAGATATAAATTAATACTTATATATATAGATA [CACACA_negctrl_site22] | 8.14 ± 0.67 |
| TAATAAATAAGACACACACACATATATATATATTAT [CACACA_site1389] | 8.74 ± 0.33 |
| ATATTAATATAATGTGCATGTTCAATGATCTTTTTA [TGCATGCA_site22] | 8.62 ± 0.35 |
| TTATACAACAAGAAAATTATAAAATGTAACATATAT [GTGCAC_negctrl_site406] | 8.53 ± 0.42 |
| ATAATTATTAATATAGTGCATTGGCATAATAATATA [GTGCAC_site9810] | 8.71 ± 0.11 |
| TTAGATATAATATATACACACCAACGAACGAAGAAA [CACACA_site4763] | 9.12 ± 0.54 |
| TATTTTTTAACACAACGTACATATAAAAAATATTTA [XGTACX_site6025] | 8.48 ± 0.37 |
| TACAAATATATATGCACACACATATATGTATATGTG [CACACA_site3075] | 8.65 ± 0.26 |
| AGTAAATAACACAAATATGAATGAAAAAAAAAATAT [GTGCAC_negctrl_site235] | 8.9 ± 0.36 |
| CGTATGAGTAAATACACACCCACGTATATATATAAA [CACACA_site5728] | 8.38 ± 0.38 |
| ATATATATATAGTACGCACACATAGTTGTACATTAA [CACACA_site2787] | 9.8 ± 0.34 |
| TGTGCGGAAATAAGTGCACACATAGATATCTGTATT [CACACA_site5935] | 9.13 ± 0.19 |
| CAACTTATTAAAAGTCGTACAAATGGGAAGAAGGAA [XGTACX_site6325] | 8.79 ± 0.36 |
| TGACGACATTTCTTATGTACTAATTTTTCTTCCTTT [XGTACX_site4391] | 8.54 ± 0.47 |
| TAAAAAAAGAAAAAAAGTACATGCTACTTTTATGAT [XGTACX_site7818] | 8.54 ± 0.42 |
| CAAAATGATATGACAACACACAACCTATAGTAAGAC [CACACA_site1287] | 8.98 ± 0.6 |
| TAATATATAATAAAGTGTACATATGCTTTATTATTA [XGTACX_site1920] | 8.6 ± 0.38 |
| AATAAAAATAACCTAACATGCAAAAAAAAAAAAAAA [TGCATGCA_site718] | 8.26 ± 0.49 |
